Consider 25 molecules from the supplement of paper PMC8285479.

The assay deals with NCI-H1944. The assay is described as follows: normalised cell viability (NPI; 0 = phenylarsine oxide control, 1 = DMSO control) (fraction of DMSO control); NCI-H1944 is a non-small cell lung cancer line; higher = more viable cells (less compound toxicity). The conditions noted are these: 6 days.
[1] abbreviates: glucocorticoid arm: hydrocortisone 2.75 uM co-treatment, compound 1 µM.
Setting [2] is: glucocorticoid arm: hydrocortisone 2.75 uM co-treatment, compound 5 µM.
The mark [3] stands for this setting: glucocorticoid arm: hydrocortisone 2.75 uM pre-treated 2 days and continued, compound 1 µM.
The mark [4] stands for this setting: glucocorticoid arm: hydrocortisone 2.75 uM pre-treated 2 days and continued, compound 5 µM.
Where [5] appears, read: glucocorticoid arm: vehicle, compound 1 µM.
[6] abbreviates: glucocorticoid arm: vehicle, compound 5 µM.

Counter-ions that a name gives are not always drawn. ± gives the standard deviation of the averaged measurements. In all, about 1,900 compounds were measured (“normalised cell viability (NPI; 0 = phenylarsine oxide control, 1 = DMSO control)”: median about 1, lowest 2% from about 0.039 on). Some of the results follow.
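Note: CTB read-out in 384-well plates, mean of triplicate wells, normalised per plate against 1 µM phenylarsine oxide and 0.1% DMSO, compounds added 24 h after seeding.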

`Nc1ncn([C@@H]2O[C@H](CO)[C@@H](O)[C@H]2O)c(=O)n1` [5-azacytidine]: the normalised cell viability came out at 1.006 ± 0.0063 under setting [1]; 1.03 under setting [2]; 1.01 ± 0.018 under setting [3]; 1.08 ± 0.014 under setting [4]; 0.972 ± 0.015 under setting [5]; 0.8937 ± 0.006 under setting [6].

In the case of `Nc1ncn([C@@H]2O[C@H](CO)[C@@H](O)[C@H]2O)c(=O)n1` [Azacitidine], the normalised cell viability is, setting by setting: under setting [1], 1.03; under setting [2], 1.11 ± 0.025; under setting [3], 1 ± 0.037; under setting [4], 0.952 ± 0.24; under setting [5], 0.976 ± 0.011; under setting [6], 0.903 ± 0.017.

Regarding `Nc1ncn([C@@H]2O[C@H](CO)[C@@H](O)[C@H]2O)c(=O)n1` [Azacitidine; 5-azacytidine], the normalised cell viability runs as follows: under setting [1], 1.04 ± 0.026; under setting [2], 1.11 ± 0.015; under setting [3], 1.04 ± 0.01; under setting [4], 1.1 ± 0.021; under setting [5], 0.98 ± 0.017; under setting [6], 0.766 ± 0.025.

In the case of `O=C(Nc1ccc(OC(F)(F)F)cc1)c1sccc1NCc1ccnc2ccccc12`, the normalised cell viability by setting is: under setting [1], 1.033 ± 0.0058; under setting [2], 1.09 ± 0.03; under setting [3], 1.027 ± 0.0058; under setting [4], 1.05 ± 0.021; under setting [5], 1.003 ± 0.0058; under setting [6], 1.007 ± 0.0058.

Consider `CCCCCCCCCCCCCCCCCCOP(=O)([O-])OC1CC[N+](C)(C)CC1` [Perifosine], for which the normalised cell viability reads like this: under setting [1], 1.01 ± 0.017; under setting [2], 1.02 ± 0.018; under setting [3], 1.005 ± 0.0087; under setting [4], 1.027 ± 0.0058; under setting [5], 1.003 ± 0.0058; under setting [6], 0.999 ± 0.011.

Consider `CN(C)CCC(c1ccc(Cl)cc1)c1ccccn1` (single isomer, unassigned; (+)) [(+)-Chlorpheniramine maleate], for which the normalised cell viability was determined as 0.9827 ± 0.0045 under setting [1]; 0.997 ± 0.012 under setting [2]; 0.979 ± 0.004 under setting [3]; 1.005 ± 0.0071 under setting [4]; 0.968 ± 0.011 under setting [5]; 0.978 ± 0.003 under setting [6].

In the case of `O=C(N[C@@H](Cc1ccccc1)C(=O)CCl)OCc1ccccc1` [Z-L-Phe chloromethyl ketone], the normalised cell viability under setting [1] amounted to 1.03 ± 0.01; the normalised cell viability under setting [2] turned out to be 0.028 ± 0.0044; the normalised cell viability under setting [3] is 1.02 ± 0.016; the normalised cell viability under setting [4] is 1.075 ± 0.0071; the normalised cell viability under setting [5] is 1.03 ± 0.01; the normalised cell viability under setting [6] was 0.149 ± 0.086.

`Cc1scc2c1N(C(=O)CN1CCN(C)CC1)c1ccccc1NC2=O` [Telenzepine dihydrochloride]: the normalised cell viability turned out to be 1 ± 0.015 under setting [1]; 1.02 ± 0.015 under setting [2]; 1.03 ± 0.026 under setting [3]; 1.004 ± 0.01 under setting [4]; 1.003 ± 0.0058 under setting [5]; 1 under setting [6].

As to `CC(COc1ccc(/C=C/c2ccccc2)cc1)[N+](C)(C)C` (stereo not given), the normalised cell viability under setting [1] was 0.999 ± 0.019; the normalised cell viability under setting [2] is 0.91 ± 0.025; the normalised cell viability under setting [3] was 1.01 ± 0.029; the normalised cell viability under setting [4] was 1 ± 0.013; the normalised cell viability under setting [5] came out at 1.023 ± 0.0058; the normalised cell viability under setting [6] was 1.03 ± 0.011.

Turning to `Cn1c(=O)c2nc[nH]c2n(C)c1=O` [Theophylline], the normalised cell viability runs as follows: under setting [1], 1.001 ± 0.0085; under setting [2], 1.01 ± 0.01; under setting [3], 1.02 ± 0.021; under setting [4], 0.9943 ± 0.0049; under setting [5], 0.99 ± 0.0087; under setting [6], 0.9907 ± 0.0038.

Take `CO[C@@]12[C@H](COC(N)=O)C3=C(C(=O)C(C)=C(N)C3=O)N1C[C@@H]1N[C@@H]12` [Mitomycin; Mitomycin C]: the normalised cell viability under setting [1] amounted to 1 ± 0.013; the normalised cell viability under setting [2] was 0.00117 ± 0.0012; the normalised cell viability under setting [3] turned out to be 1.017 ± 0.0058; the normalised cell viability under setting [4] came out at 0.0028 ± 0.00069; the normalised cell viability under setting [5] came to 0.9803 ± 0.0055; the normalised cell viability under setting [6] came out at 0.000408 ± 0.00038.

With `CC1=Nc2ccc(Cl)cc2S(=O)(=O)N1` [Diazoxide], the normalised cell viability is, setting by setting: under setting [1], 0.994 ± 0.015; under setting [2], 0.97 ± 0.019; under setting [3], 1 ± 0.022; under setting [4], 0.971 ± 0.015; under setting [5], 0.9907 ± 0.0031; under setting [6], 0.985 ± 0.0027.

`Cc1ccc(Cl)c(Nc2ccccc2C(=O)O)c1Cl` [Meclofenamic acid sodium salt]: the normalised cell viability was 0.986 ± 0.01 under setting [1]; 0.986 ± 0.022 under setting [2]; 0.9947 ± 0.0059 under setting [3]; 1.02 ± 0.086 under setting [4]; 0.9957 ± 0.0021 under setting [5]; 0.998 ± 0.011 under setting [6].

As for `CC(C)(Cc1ccc2ccccc2c1)NC[C@@H](O)COc1cccc(Cl)c1C#N`, the normalised cell viability by setting is: under setting [1], 1.01; under setting [2], 0.939 ± 0.011; under setting [3], 1.017 ± 0.0058; under setting [4], 0.954 ± 0.022; under setting [5], 1.003 ± 0.0058; under setting [6], 0.9797 ± 0.004.

For the molecule `O=C1Nc2ccc(I)cc2C1=Cc1cc(Br)c(O)c(Br)c1`, the normalised cell viability by setting is: under setting [1], 1.047 ± 0.0058; under setting [2], 1.113 ± 0.0058; under setting [3], 1.04 ± 0.01; under setting [4], 1.08 ± 0.021; under setting [5], 1.02 ± 0.01; under setting [6], 1.043 ± 0.0058.

Turning to `CN(C)CCOc1ccc(/C(=C(/CCCl)c2ccccc2)c2ccccc2)cc1` [Toremifene Citrate], the normalised cell viability turned out to be 0.9127 ± 0.004 under setting [1]; 0.794 ± 0.022 under setting [2]; 0.954 ± 0.022 under setting [3]; 0.877 ± 0.036 under setting [4]; 0.963 ± 0.011 under setting [5]; 0.983 ± 0.007 under setting [6].

As for `CCCC(CCC)C(=O)NO` [Valproic acid hydroxamate], the normalised cell viability by setting is: under setting [1], 1 ± 0.022; under setting [2], 1.01 ± 0.022; under setting [3], 1.01 ± 0.016; under setting [4], 1.02 ± 0.016; under setting [5], 0.9982 ± 0.0077; under setting [6], 0.9988 ± 0.0092.

For `CCCn1c(=O)c2c(ncn2C)n(CCC)c1=O` [1,3-Dipropyl-7-methylxanthine], the normalised cell viability runs as follows: under setting [1], 1.01 ± 0.013; under setting [2], 0.999 ± 0.011; under setting [3], 0.998 ± 0.011; under setting [4], 0.998 ± 0.02; under setting [5], 0.9897 ± 0.0038; under setting [6], 0.9923 ± 0.005.

As to `C[C@H]1C[C@H]2[C@@H]3CCC4=CC(=O)C=C[C@]4(C)[C@@]3(F)[C@@H](O)C[C@]2(C)[C@@]1(O)C(=O)CO` [Betamethasone], the normalised cell viability by setting is: under setting [1], 0.987 ± 0.02; under setting [2], 0.981 ± 0.016; under setting [3], 0.998 ± 0.01; under setting [4], 1.03 ± 0.014; under setting [5], 0.831 ± 0.01; under setting [6], 0.818 ± 0.025.

In the case of `Nc1ncnc2c1ncn2[C@@H]1O[C@H](COP(=O)(O)CP(=O)(O)OP(=O)([O-])O)[C@@H](O)[C@H]1O.[Li+]` [alpha,beta-Methylene adenosine 5'-triphosphate lithium salt], the normalised cell viability is, setting by setting: under setting [1], 1.02 ± 0.011; under setting [2], 1 ± 0.036; under setting [3], 1.01 ± 0.014; under setting [4], 0.992 ± 0.013; under setting [5], 1.005 ± 0.0081; under setting [6], 1.02 ± 0.021.

`CNC(=O)c1cc(COc2nnc(Nc3ccc(Cl)cc3)c3ccoc23)ccn1` [Telatinib (BAY 57-9352)]: the normalised cell viability runs as follows: under setting [1], 0.9903 ± 0.0035; under setting [2], 0.983 ± 0.041; under setting [3], 0.978 ± 0.013; under setting [4], 0.978 ± 0.022; under setting [5], 1.002 ± 0.0072; under setting [6], 0.979 ± 0.011.

For `COc1cc2nccc(Oc3ccc(NC(=O)C4(C(=O)Nc5ccc(F)cc5)CC4)cc3)c2cc1OC` [XL184; Cabozantinib], the normalised cell viability runs as follows: under setting [1], 0.9953 ± 0.0045; under setting [2], 0.6313 ± 0.0025; under setting [3], 0.996 ± 0.016; under setting [4], 0.71 ± 0.017; under setting [5], 1.01 ± 0.01; under setting [6], 0.884 ± 0.019.

On to `COc1cc2nccc(Oc3ccc(NC(=O)C4(C(=O)Nc5ccc(F)cc5)CC4)cc3)c2cc1OC` [XL-184 free base (Cabozantinib)], for which the normalised cell viability was found to be 0.9763 ± 0.0032 under setting [1]; 1.02 ± 0.02 under setting [2]; 0.998 ± 0.021 under setting [3]; 1.03 ± 0.011 under setting [4]; 0.9957 ± 0.0029 under setting [5]; 1.007 ± 0.0058 under setting [6].

Turning to `COc1cc2nccc(Oc3ccc(NC(=O)C4(C(=O)Nc5ccc(F)cc5)CC4)cc3)c2cc1OC` [Cabozantinib malate (XL184)], the normalised cell viability runs as follows: under setting [1], 0.974 ± 0.0076; under setting [2], 0.558 ± 0.033; under setting [3], 0.98 ± 0.013; under setting [4], 0.583 ± 0.0076; under setting [5], 1.013 ± 0.0058; under setting [6], 0.869 ± 0.016.

As to `CN1CCN(c2nc3cc(C(F)(F)F)ccc3n3cccc23)CC1`, the normalised cell viability by setting is: under setting [1], 0.99 ± 0.0089; under setting [2], 0.983 ± 0.0066; under setting [3], 1 ± 0.024; under setting [4], 1.04 ± 0.015; under setting [5], 0.983 ± 0.0053; under setting [6], 0.9807 ± 0.0025.
